{
  "source": "paper PMC7819943",
  "about": "“Rice protein-binding microarrays: a tool to detect cis-acting elements near promoter regions in rice”",
  "note": "This is one part of the list.",
  "data": [
    {"target": "T1, OsWOX13 (Oryza sativa, UniProt Q5QMM3 1-267)", "T1 sequence": "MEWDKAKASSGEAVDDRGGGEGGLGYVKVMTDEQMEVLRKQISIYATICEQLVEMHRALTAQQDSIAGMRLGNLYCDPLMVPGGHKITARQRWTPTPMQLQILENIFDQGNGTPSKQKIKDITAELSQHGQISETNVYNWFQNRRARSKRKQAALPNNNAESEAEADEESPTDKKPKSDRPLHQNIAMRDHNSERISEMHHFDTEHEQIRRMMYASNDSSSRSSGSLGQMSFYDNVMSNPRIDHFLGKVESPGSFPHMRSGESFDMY", "experiment": "protein-binding microarray (RPBM); PBS, 2% BSA, 51.3 ng/ul salmon testes DNA, 50 uM zinc acetate, 200 nM TF, 25 C, 1 h; high values mean tight binding", "settings": "protein: recombinant; tags: N-terminal polyhistidine and DsRed monomer fusion (pET32a); label: CyDye5-dUTP incorporated in the synthesized complementary strand; 3' TTTTT single-stranded linker to array surface; dsDNA, one strand shown", "method_in_brief": "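Using Ni–NTA, transcription factors fused N-terminally to polyhistidine and DsRed were purified after expression in E. coli BL21-CodonPlus. These were incubated at 200 nM with a blocked, double-stranded custom Agilent array for 1 h at 25 °C in a buffer containing 50 µM zinc acetate, and the array was washed. The binding signal is per-feature fluorescence intensity (arbitrary units) on an Axon 4000B scanner.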", "values": [
      {"sequence": "CAACTTAAATTATACTGTATTCAGAAGGTATAGCTGAGATCGGAGTCACCTAGTGCAG", "binding signal": "5020 fluorescence intensity (a.u.)"},
      {"sequence": "TTTAAAATTTAAAGAGTAAATTTCATAAAACTACAGATACCGGAGTCACCTAGTGCAG", "binding signal": "4180 fluorescence intensity (a.u.)"},
      {"sequence": "CTTAATTGTATGATAATTTCTTCTGATGTTTCATGCTCAACGGAGTCACCTAGTGCAG", "binding signal": "42300 fluorescence intensity (a.u.)"},
      {"sequence": "GTCATCATTAATTCATTGCTGTCATTGTTTGCAAGATATTCGGAGTCACCTAGTGCAG", "binding signal": "4340 fluorescence intensity (a.u.)"},
      {"sequence": "CTGCTGATTTTGCATTCGGTTTTCTGGCGGTAGATGGAAACGGAGTCACCTAGTGCAG", "binding signal": "5380 fluorescence intensity (a.u.)"},
      {"sequence": "AGTTAATTACTAATTAACAATAATATACTTTAATTATTGCCGGAGTCACCTAGTGCAG", "binding signal": "46600 fluorescence intensity (a.u.)"},
      {"sequence": "TTGTCCATCTGATTTAACATGAAAATCGAGGATCGAATGACGGAGTCACCTAGTGCAG", "binding signal": "3190 fluorescence intensity (a.u.)"},
      {"sequence": "TAGGGTATTTCAATCACACAATTTCCGGAAAGTTTTCGACCGGAGTCACCTAGTGCAG", "binding signal": "12500 fluorescence intensity (a.u.)"},
      {"sequence": "TGCAAAAGATAAATTGGCTATATTAATAATAATAAGGGGCCGGAGTCACCTAGTGCAG", "binding signal": "10000 fluorescence intensity (a.u.)"},
      {"sequence": "TGTAAATTTGAATAAATTATGACTGTTTGGTCGTACATACCGGAGTCACCTAGTGCAG", "binding signal": "37900 fluorescence intensity (a.u.)"},
      {"sequence": "GTAGTTCATCCGAAGCACGTGATTGGTTGAAAATGTTTCTCGGAGTCACCTAGTGCAG", "binding signal": "7500 fluorescence intensity (a.u.)"},
      {"sequence": "TTATGATTTAATTAGCGATTAATTATCCTAATTAGTGATTCGGAGTCACCTAGTGCAG", "binding signal": "62200 fluorescence intensity (a.u.)"},
      {"sequence": "CGGATTGATTCTTTCTTGCTCGGCATTTCGATTGGTTTGGCGGAGTCACCTAGTGCAG", "binding signal": "47200 fluorescence intensity (a.u.)"},
      {"sequence": "TATCTTGGGTAATTAGTTTTAAATTTCCCGTAATAAAATGCGGAGTCACCTAGTGCAG", "binding signal": "5320 fluorescence intensity (a.u.)"},
      {"sequence": "TTGGCTATTAAATTGACTAGATGTTTTGGACCCGACAGCTCGGAGTCACCTAGTGCAG", "binding signal": "16700 fluorescence intensity (a.u.)"},
      {"sequence": "AAATTGATATATTTTGCTAACTATTAATGGTATTGCGACACGGAGTCACCTAGTGCAG", "binding signal": "4750 fluorescence intensity (a.u.)"},
      {"sequence": "AAACTAACCAGGATCTGGTAATTGGAACGATCCCCATTCCCGGAGTCACCTAGTGCAG", "binding signal": "4390 fluorescence intensity (a.u.)"},
      {"sequence": "TTGTAATTGAGGGTTACAAATTAGATTGGACATATATTTGCGGAGTCACCTAGTGCAG", "binding signal": "39800 fluorescence intensity (a.u.)"},
      {"sequence": "GTTGATGACTTTGCGAATTAAGGAGGCAGCTTTGGGTCTTCGGAGTCACCTAGTGCAG", "binding signal": "5950 fluorescence intensity (a.u.)"},
      {"sequence": "GATATTAAACTAAACTGACACGCTCGTGCAGATGAGTTTGCGGAGTCACCTAGTGCAG", "binding signal": "7480 fluorescence intensity (a.u.)"},
      {"sequence": "GTCTAATTATGTCATGAATTTGACAATGTGATGCTACAGTCGGAGTCACCTAGTGCAG", "binding signal": "21700 fluorescence intensity (a.u.)"},
      {"sequence": "TGCAGTTAACTGAAACATTCTTTCGCTATTTGCTGAAATACGGAGTCACCTAGTGCAG", "binding signal": "6320 fluorescence intensity (a.u.)"},
      {"sequence": "CGGTTGAGGAATTACTGTGATTGAAATTCGACCATAAGATCGGAGTCACCTAGTGCAG", "binding signal": "29300 fluorescence intensity (a.u.)"},
      {"sequence": "TCAAAATTATATTAATATATTGCTAATACTTATGCGCTAACGGAGTCACCTAGTGCAG", "binding signal": "22700 fluorescence intensity (a.u.)"},
      {"sequence": "GATATATATAATGAAATTAATTTGGTGTTGTAGATGTTGCCGGAGTCACCTAGTGCAG", "binding signal": "17200 fluorescence intensity (a.u.)"},
      {"sequence": "TTATTAATTTGTAATAGGTGTATTTCGGTCTTATTAAACTCGGAGTCACCTAGTGCAG", "binding signal": "19600 fluorescence intensity (a.u.)"},
      {"sequence": "TGCGGATCTAATTGCCACGTAAGCGCCACGACAATGACACCGGAGTCACCTAGTGCAG", "binding signal": "3380 fluorescence intensity (a.u.)"},
      {"sequence": "TAATAATTAGTAGTGGGTGATGATATTGCACACTTGCATACGGAGTCACCTAGTGCAG", "binding signal": "17000 fluorescence intensity (a.u.)"},
      {"sequence": "GTTAAAATTAGAGATGATGTGACTGAAAAGTTGTGTGTGTCGGAGTCACCTAGTGCAG", "binding signal": "12200 fluorescence intensity (a.u.)"},
      {"sequence": "TTTAGACACTAATTTAGAGTATTAAATATATACTACTTATCGGAGTCACCTAGTGCAG", "binding signal": "10800 fluorescence intensity (a.u.)"},
      {"sequence": "ACTGCATTTAATTATGATCTGCCTATCTTTATATAAGTGCCGGAGTCACCTAGTGCAG", "binding signal": "12700 fluorescence intensity (a.u.)"},
      {"sequence": "AGTAAATGAGCATCATTGAATGCGCTGCACACATGTAATGCGGAGTCACCTAGTGCAG", "binding signal": "6240 fluorescence intensity (a.u.)"},
      {"sequence": "GTAATTAATGTTTATGCATGGGTTTAAAATTGTAGATGGACGGAGTCACCTAGTGCAG", "binding signal": "9780 fluorescence intensity (a.u.)"},
      {"sequence": "CTGGTTAATTACTCTTGTTAAGAAATTGTTAGTGAAGTAACGGAGTCACCTAGTGCAG", "binding signal": "16400 fluorescence intensity (a.u.)"},
      {"sequence": "AAGAGTTAGATGGCATCAATCAAGCTCGCGGAGGCTGACCCGGAGTCACCTAGTGCAG", "binding signal": "11100 fluorescence intensity (a.u.)"},
      {"sequence": "TTATTAACTGAAATTACGTAAATGCCCCTCCCTTTCTTTTCGGAGTCACCTAGTGCAG", "binding signal": "8870 fluorescence intensity (a.u.)"},
      {"sequence": "TACACAGATTGCGACTAATTTGTGAGACGAATCTTTTAAGCGGAGTCACCTAGTGCAG", "binding signal": "15400 fluorescence intensity (a.u.)"},
      {"sequence": "GGTGATGGATCCCCACATTGTCGTCGCGTCCCCTCCCATCCGGAGTCACCTAGTGCAG", "binding signal": "3940 fluorescence intensity (a.u.)"},
      {"sequence": "TATATATATATATATATATATATATATATAACCATGCAGCCGGAGTCACCTAGTGCAG", "binding signal": "11200 fluorescence intensity (a.u.)"},
      {"sequence": "CTATGATTAGATAATGTTTACTGTAGCATCACATAGGCTACGGAGTCACCTAGTGCAG", "binding signal": "47300 fluorescence intensity (a.u.)"},
      {"sequence": "CCACAGTAGATTGACCCATTTTAATGTGTTAGGATGCTGCCGGAGTCACCTAGTGCAG", "binding signal": "22900 fluorescence intensity (a.u.)"},
      {"sequence": "ATGACCCCTTGATTGCATAACACACATACTAGGTCATACTCGGAGTCACCTAGTGCAG", "binding signal": "17800 fluorescence intensity (a.u.)"}
    ]}
  ]
}
